Some of the results follow.
B1: ENSG00000136451:be:win_2351|3pUTR|ENSG00000136451|bound_else_gene|NA|bound_elsewhere_windowed (ssRNA)
RNA: GGGAGUUCUACAGUCCGACGAUCGAAGUCAAGUGUGUGGACAGGCAAGCUCCUAAUAAACAGAGUCCAGUGGGAUUCCUAUUUAGGAGCCAAGGAGUACUUUGGAACAGUACAAAUAUAUUGCUUUAAAUUGGAAGACGCUGGCAACAGAGGAUUGAGCAUCA
B2: chr12:85264020:85264122:+|3pUTR|ENSG00000133640|unk|FALSE|unique (ssRNA)
RNA: GGGAGUUCUACAGUCCGACGAUCCAUAGUAUUUCAGUUACUUUCCACAGCUGUGUUGCUCAAUAAUAGCAUCCAGUGAACUUUAGUAUUUUUUUGUUUUUCCUGUAUUUUAUUAAAAUAUUUCAUCUAGAGAUAACUGAAGUGCAACAGAGGAUUGAGCAUCA
B3: chr1:162783069:162783171:+|3pUTR|ENSG00000162733|unk|total|mutant (ssRNA)
RNA: GGGAGUUCUACAGUCCGACGAUCUGAAAGCCGUUCAAAUUUGAAUCCGAAGAAUGAAGCCCGGACUUAUUUGGAAAAGGAGACCGAAAAAAAAUGAUCAGAAACUGUGGGGCCUUAUUACCUUUGCAGUAAGUUAUCUUCUUCCAACAGAGGAUUGAGCAUCA
B4: chr12:125025615:125025697:+|3pUTR|ENSG00000184992|msi1_unk|total|mutant (ssRNA)
RNA: GGGAGUUCUACAGUCCGACGAUCGGACACAUUCCCAGAAGAGCGGAAAGAUCAUUGACGUGGAACUACACACGAAGUGUAAUCCGUGGGGGAAAAAAUAUUUUUUAAACAAAGGAUAUAACCAUAUUCCGUUGUACAGUAAGACAACAGAGGAUUGAGCAUCA
B5: chr17:34942483:34942643:-|CDS|ENSG00000132141|control|control|control (ssRNA)
RNA: GGGAGUUCUACAGUCCGACGAUCGAAAGAGAAAUUGGUAAAAGCUGAAAGAAAAUUUAUUGAAGAUAGAGUACAAAAAAUAAUAGACCUGAAGGACAAAGUCUGUGCUCAGUCAAAUAAAGGAUUUGUCGUCAUUAAUCAAAACAACAGAGGAUUGAGCAUCA
B6: chr2:223975255:223975490:-|3pUTR|ENSG00000135919|msi1|FALSE|bound_elsewhere (ssRNA)
RNA: GGGAGUUCUACAGUCCGACGAUCUUUAAAUUCUUUUCCCCCAUCCCCCUCCAAAGUCUUGAUAGCAAGCGUUAUUUUGGUGGUAGAAACGGUGAAAUCUCUAGCCUCUUUGUGUUUUUGUUGUUGUUGUUGUUGUUGUUUUAUCAACAGAGGAUUGAGCAUCA
B7: chr13:30205178:30205279:-|3pUTR|ENSG00000102781|msi1|total|mutant (ssRNA)
RNA: GGGAGUUCUACAGUCCGACGAUCUUGGCAGUUUCUCUAACGACUCUGUACCGCUUCUGGCUUCUACUACUGAAACAAGAGUUCCGAUCACUGAUGGAGAGGCACCGUAAUCUGUUUGUGCUUUGGAAAAAUAUAUAAAAGUUUCAACAGAGGAUUGAGCAUCA
B8: chr7:56058368:56058516:+|CDS|ENSG00000146731|unk|FALSE|unique (ssRNA)
RNA: GGGAGUUCUACAGUCCGACGAUCUACAAGAGUGCAGAAGAGAGAGAAAAACUCGUGAAAGCUGAAAGAAAAUUCAUUGAAGAUAGGGUUAAAAAAAUAAUAGAACUGAAAAGGAAAGUCUGUGGCGAUUCAGAUAAAGGAUUUCAACAGAGGAUUGAGCAUCA
B9: chr11:126202095:126203417:-|three_prime_utr|ENSG00000165526|control|control|control (ssRNA)
RNA: GGGAGUUCUACAGUCCGACGAUCAAGGUAAAGCAACUCAGCUGCUACAGGGCUUUUAAUGGAGAACAAAGUCUAUUUACUGAUAGUUUGGCUGCACUGUGGAAAAGCCUGCUGGAAGUCUCCCUGCCGUGGGCUCUCAUUGCCCAACAGAGGAUUGAGCAUCA
B10: chr10:110135209:110135310:+|3pUTR|ENSG00000148700|msi1|FALSE|bound_elsewhere (ssRNA)
RNA: GGGAGUUCUACAGUCCGACGAUCCUCUCUAUUGGAAGAUUUUUUUAAUGUUCUACAUCAUUUAUGUUGUAUUACAAUGUAUGUAGAAAUAGUAACCUGUGAACUAUGCUUUUCCAUAACUUUUUAAAAAUAUAUAUAUCUAAACAACAGAGGAUUGAGCAUCA
B11: chr8:17969608:17969733:+|CDS|ENSG00000078674|unk|FALSE|unique (ssRNA)
RNA: GGGAGUUCUACAGUCCGACGAUCUUCUAAUUUUGGAGAUUUUUCUCAGAAUAUCUCUACACCCAGUGAACAGCAGCAACCCUUAGCCCAGAAUUCUUCAGGAAAAACAGAAUAUAUGGCUUUUCCAAAACCUUUUGAAAGCAGCAACAGAGGAUUGAGCAUCA
B12: chr5:136988535:136988636:-|CDS|ENSG00000152377|msi1|total|mutant (ssRNA)
RNA: GGGAGUUCUACAGUCCGACGAUCGGAAAGCAUCAGGCUUGGUGGCAGCUGAGAUAUGCCUUUUGUUUGGCAGGGUUUGACACCCGCAUCCUGCCCAUCUGCAAGGACUCCCUGGGCUGGAUGUUCAACAAGUUGGACAUGAACCAACAGAGGAUUGAGCAUCA
B13: chr2:1632960:1633155:-|3pUTR|ENSG00000130508|msi1|total|mutant (ssRNA)
RNA: GGGAGUUCUACAGUCCGACGAUCGUCCAUUUUUCCGGUAUCCGAUAUGGCAGAAAAACCAUUUCCACUAUGCAAAGUUCUUUCCGACGUCAGUGAAAAUCAACUCUCAUACCUCAUGGUCUCUCUUUAAUUGACCAAAACCUUCAACAGAGGAUUGAGCAUCA
B14: ENSG00000121579:stop:overlap|stop_codon|ENSG00000121579|stop_codon|NA|stop_codon (ssRNA)
RNA: GGGAGUUCUACAGUCCGACGAUCUCAGCUACAAUGACAAGUUCUACAAGGAUGUGCUGGAGCCUAUUUCAAUGAUAUUGCUGUAGGUGCAGUAUGCUGUAGGGUGGAUCAUUCACAGAAUCAGAAGAGACUUUACAUCAUGACCAACAGAGGAUUGAGCAUCA
B15: chr11:4094911:4095012:+|5pUTR|ENSG00000167325|unk|total|mutant (ssRNA)
RNA: GGGAGUUCUACAGUCCGACGAUCAGCAGCGCCUGGAACCUAACCCUUCCCACUCUGUCACCUUCUCGAUCCCGCCGGCGCUUCCGAGCCGCAGUCCAGUCUUGGAUCCUUCAGAGCCUCAGCCACCCGCUGCGAUGCAUGUGACAACAGAGGAUUGAGCAUCA
B16: chr6:158785413:158785514:-|CDS|ENSG00000092820|msi1|total|mutant (ssRNA)
RNA: GGGAGUUCUACAGUCCGACGAUCGAGCUCAUCCAGGACAUCACCCAGAAACUUUUCUUCCUCCAAGUGAAGGAAGGAAUCCUCCGCGAUGAGAUCUACUGCCCCCCUGAGACUGCCGUGCUCUUGGGGUCCUACGCUGUGCAGCAACAGAGGAUUGAGCAUCA
B17: chr6:89938216:89938327:-|CDS|ENSG00000112182|unk|total|mutant (ssRNA)
RNA: GGGAGUUCUACAGUCCGACGAUCUCUUCCAAGGAACGAUUUCCAGAUGAUGAUUAAAAUGCACAAGCUAACCUCAGAACAGUCCGAGUUUAUUCAUGAUGUCCGACGGCGCAGCAAGAACCGCAUCGCGGCCCAGCGCUGCCGCAACAGAGGAUUGAGCAUCA
B18: chr7:130192614:130192715:-|CDS|ENSG00000146842|msi1|FALSE|unique (ssRNA)
RNA: GGGAGUUCUACAGUCCGACGAUCUACAUGACCGACCUACGAACUUUGGAUACUUUUCUCAGAAGUGAAGAGGAGAAACAGCAUAGGGUUAAGCUGGGUACAUAUAUAUUUCUGUAUAUCUACUAUACAUAUUUUUGGUGUCAACAACAGAGGAUUGAGCAUCA
B19: ENSG00000107863:be:win_4651|CDS|ENSG00000107863|bound_else_gene|NA|bound_elsewhere_windowed (ssRNA)
RNA: GGGAGUUCUACAGUCCGACGAUCAGCACGUCUUCCCAGGCCUCCCUGGCAAGGUUUUCCAUGAAGAAAUCAACCAGUCCAGAAACGAAACAUAGCGAGUUUUUGGCCAACGUCAGCACCAUCACCUCAGAUUAUUCCACCACACAACAGAGGAUUGAGCAUCA
B20: chr10:24583932:24584033:-|3pUTR|ENSG00000107863|unk|total|mutant (ssRNA)
RNA: GGGAGUUCUACAGUCCGACGAUCAACAAAAGUGCCUCAUCAUAAAAAUACAGUUGGUUUUCCGGGUGCCAUAUUGUUAAAAUCCGAUAACUUACUUACAUUGAAUAAACGAAUGCGUUUUAUUGGUAACAGAUAUCAUUACAUCAACAGAGGAUUGAGCAUCA
B21: ENSG00000198837:stop:overlap|stop_codon|ENSG00000198837|stop_codon|NA|stop_codon (ssRNA)
RNA: GGGAGUUCUACAGUCCGACGAUCAGAUGCCCACUCCCAAGGCCAUUGACUGCCGAAAAUGUUUUGGAGCACCUCCAGAAUGCUAGAGACCUUAAGCUUCCCUCUCCAGCCUAGGGUGGGGAAGUGAGGAAGAAGGGAUUCUAGCAACAGAGGAUUGAGCAUCA
B22: ENSG00000070961:be:win_1851|CDS|ENSG00000070961|bound_else_gene|NA|bound_elsewhere_windowed (ssRNA)
RNA: GGGAGUUCUACAGUCCGACGAUCUAAUGGUGAGGCAAAAGUAUUCAGACCAAGGGACCGUGAUGAUAUUGUAAAAACUGUGAUUGAACCGAUGGCAUCAGAAGGCUUGAGAACCAUAUGUCUUGCAUUCAGAGAUUUUCCAGCCAACAGAGGAUUGAGCAUCA

molecular target: MSI1 full-length (mouse, UniProt Q61474 1-362); test: nsRBNS (natural sequence RNA bind-n-seq); RBNS binding buffer (assumed for nsRBNS): 25 mM Tris pH 7.5, 150 mM KCl, 3 mM MgCl2, 0.01% Triton X-100, 500 ug/ml BSA, 20 U/ml SUPERase-In, 4 C; UNK is unkempt and MSI1 is Musashi-1; names of the RNAs are library labels; protein concentration not given here; high values mean tight binding
UniProt Q61474, sequence (Q61474 whole entry): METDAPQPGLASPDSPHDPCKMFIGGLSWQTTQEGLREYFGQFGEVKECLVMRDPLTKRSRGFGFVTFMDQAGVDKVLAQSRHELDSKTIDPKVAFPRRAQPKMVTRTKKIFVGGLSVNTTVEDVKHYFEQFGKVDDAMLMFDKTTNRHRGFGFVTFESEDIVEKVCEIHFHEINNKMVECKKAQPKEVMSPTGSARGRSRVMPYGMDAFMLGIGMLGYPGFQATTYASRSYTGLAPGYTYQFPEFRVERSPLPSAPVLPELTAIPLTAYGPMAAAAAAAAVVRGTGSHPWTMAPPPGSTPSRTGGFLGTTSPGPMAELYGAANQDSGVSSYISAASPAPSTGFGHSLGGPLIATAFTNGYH

Binder | binding signal
B1 | 0.512 enrichment R
B2 | 3.88 enrichment R
B3 | 0.267 enrichment R
B4 | 0.405 enrichment R
B5 | 1.05 enrichment R
B6 | 3.89 enrichment R
B7 | 0.409 enrichment R
B8 | 3.04 enrichment R
B9 | 0.442 enrichment R
B10 | 15.2 enrichment R
B11 | 0.487 enrichment R
B12 | 0.511 enrichment R
B13 | 0.353 enrichment R
B14 | 0.48 enrichment R
B15 | 0.592 enrichment R
B16 | 0.403 enrichment R
B17 | 0.331 enrichment R
B18 | 0.676 enrichment R
B19 | 0.452 enrichment R
B20 | 0.389 enrichment R
B21 | 2.04 enrichment R
B22 | 0.273 enrichment R

Source: PMC12136788
